PubChem BioAssay AID485344 (National Center for Advancing Translational Sciences (NCATS), 2010)
About 6,900 (2%) of roughly 340,000 compounds were called active. Cut-off read from the data, not from the text of the source: active = inhibition above about 30%; inactive = below that, where a call was filed. Only a part is listed here, and it is no random draw. The source gives no active or inactive call for entries shown without one.

target: D(2) dopamine receptor (Homo sapiens) (UniProt P14416); test: HTS Assay for Allosteric Antagonists of the Human D2 Dopamine Receptor: Primary Screen for Antagonists; conditions: HEK293 TREx D2 cells, calcium flux, dopamine EC80; at 10 µM; stronger effect = higher value; note: 0% is about no effect
UniProt P14416, sequence (P14416 whole entry, looked up): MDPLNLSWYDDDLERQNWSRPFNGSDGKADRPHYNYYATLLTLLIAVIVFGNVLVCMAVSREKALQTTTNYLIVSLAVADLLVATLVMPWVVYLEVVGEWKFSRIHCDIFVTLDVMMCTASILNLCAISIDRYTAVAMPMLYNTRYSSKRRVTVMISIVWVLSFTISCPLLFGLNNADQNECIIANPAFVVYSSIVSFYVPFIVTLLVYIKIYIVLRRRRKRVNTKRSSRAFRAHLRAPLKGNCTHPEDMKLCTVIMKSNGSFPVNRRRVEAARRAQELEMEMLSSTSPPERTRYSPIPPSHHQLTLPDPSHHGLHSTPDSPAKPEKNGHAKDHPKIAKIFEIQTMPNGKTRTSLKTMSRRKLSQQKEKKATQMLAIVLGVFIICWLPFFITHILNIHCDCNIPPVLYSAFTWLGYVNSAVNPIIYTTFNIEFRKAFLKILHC
Method in brief: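 Antagonism is scored as inhibition of an EC80 dopamine-evoked calcium signal in a force-coupled, tetracycline-inducible HEK293 T-REx D2 line, with compound present 180 s before agonist.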

Compound	inhibition
CN(C)c1ccc(CNC(=O)CCCN2C(=O)CCn3nc(-c4cn(C)c5ccccc45)cc32)cc1	-23.7%
N#Cc1ccccc1OCC(=O)N1CCN(c2ccccc2)CC1	14.6%
CCCN1CCN(CCCNC(=O)c2cc3c(s2)-c2ccccc2OC3)CC1	-1.82%
COCCn1c(C)cc(O)c(C(c2ccccc2Cl)N2CCCCC2)c1=O (centres undefined)	11.8%
Cc1ccc2cc3cc(C(=O)N4CCN(c5ccccc5)CC4)sc3nc2c1	7.32%
COc1cccc(NC(=O)/C(C#N)=C/c2ccc(-c3ccc(C)cc3)o2)c1	-0.612%
Cc1ccc(S(=O)(=O)Nc2cccc(-c3ccc(N4CCCC4)nn3)c2)c(C)c1	-23.8%
O=C(Cn1cc(S(=O)(=O)Cc2cccc(Cl)c2)c2ccccc21)NCc1ccccc1Cl	7.4%
CC(C)CCSc1nnc2n(-c3ccccc3)c(=O)c3c4c(sc3n12)CC(C)CC4 (centres undefined)	1.36%
CCOC(=O)c1c(C)[nH]c(C)c1S(=O)(=O)NCC(=O)NCc1cccc(Br)c1	3.38%
Cc1cc(C)nc(-n2nc(C)c3c2N(Cc2ccccc2C)C(=O)CC3c2ccc(Cl)cc2)n1 (centres undefined)	6.04%
COC(=O)c1ccccc1N(C)S(=O)(=O)c1cc2c3c(c1)CC(=O)N3CCC2	-15.9%
CCc1ccc(NC(=O)Cn2c(=O)nc(-c3ccccc3F)c3cc(Cl)ccc32)cc1	8.64%
O=C(Nc1ccc(Oc2ccccc2)cc1)c1ccc(F)c(S(=O)(=O)N2CCN(c3ccccc3F)CC2)c1	18.6%
COc1ccc(OC)c(CN2CCN(Cc3cccc4ccccc34)CC2)c1	active: 71%
COc1cccc(CNC(=O)CCc2c(C)nc3c4c(C)cc(C)nc4nn3c2C)c1	6.2%
Cc1ccccc1OCC(=O)Nc1nnc(SCc2cc(=O)n3cc(Cl)ccc3n2)s1	-7.4%
Cc1ccc(C)c(CN2C(=O)c3ccccc3S(=O)(=O)c3ccc(C(=O)NCCc4ccc(Cl)cc4)cc32)c1	24.2%
CCc1ccccc1NC(=O)C1CCN(c2nc3ccccc3[nH]2)CC1	0.0486%
Cc1ccc(-n2nc(C)c(C(=O)NCCCN3CCN(c4cccc(Cl)c4)CC3)c2-n2cccc2)cc1	-13.4%
Cc1ccc(CCNc2nc3ccccc3c3nc(-c4cccnc4)nn23)cc1	8.97%
COc1ccc(C(=O)NCc2nc(-c3cccc(C)c3)no2)cc1OC	-20.6%
Cc1nc(-c2ccc(S(=O)(=O)NCc3ccc(F)cc3)cc2)co1	-15%
COc1cccc(C(=O)COC(=O)c2cc(-c3cccs3)nc3ccccc23)c1	-7.15%

Compound	inhibition
Cc1cc(NS(=O)(=O)c2cn(C)c(C)n2)ccc1Br	-5.74%
Cc1cccn2c(=O)cc(COc3ccc(NC(=O)C(C)C)cc3)nc12	11.4%
Nc1ccc2oc(-c3ccccc3Br)nc2c1	-5.04%
Cc1ccc(-n2nc(C)c3c(C)cc(=O)n(CC(=O)Nc4cc(Cl)ccc4C)c32)cc1	6.37%
Cc1ccccc1NC(=O)CSc1nc2ccc(NC(=O)CCc3ccccc3)cc2s1	-1.32%
COC(=O)c1sccc1S(=O)(=O)N(CC(=O)Nc1ccccc1C)c1ccc(Cl)cc1	-0.413%
Cc1ccc2oc(=O)c3cc(C(=O)Nc4ccc(C)c(F)c4)sc3c2c1	3.1%
CCc1nnc(NC(=O)CSc2nc3c([nH]c4ccccc43)c(=O)n2-c2ccc(F)cc2)s1	-0.368%
COc1ccccc1/C=C/c1onc(C)c1S(=O)(=O)N1CCC(C(=O)N2CCC(C)CC2)CC1	-15.8%
Cc1c(Cl)cccc1NC(=O)c1cc(S(=O)(=O)N2CCCCC2)cn1C	16.9%
Cc1ccc(NC(=O)C2CCCN(C(=O)c3cnn(-c4ccccc4)c3-n3cccc3)C2)cc1 (centres undefined)	0.572%
COc1ccc(NC(=O)Cn2c(=O)n(Cc3ccco3)c(=O)c3sc4ccccc4c32)c(OC)c1	-16.1%
Cc1nn(-c2ccccc2)c(-n2cccc2)c1C(=O)N1CCN(c2ccccc2)CC1	16.4%
Cc1cc(OCC(=O)N(Cc2ccc(N(C)C)cc2)Cc2ccco2)cc(C)c1Cl	4.72%
CCOC(=O)c1ccc(OC(=O)c2cn(-c3ccc(C)cc3)c(=O)c3ccccc23)cc1	4.64%
COc1ccc(CNC(=O)c2cc3sccc3n2Cc2ccc(F)cc2)cc1	7.3%
COCCCN1C(=O)c2[nH]nc(-c3cc(C)ccc3O)c2C1c1ccc(F)cc1 (centres undefined)	-9.05%
O=C(Nc1noc2ccccc12)c1cccc(Cl)c1Cl	10.3%
Cc1cccc(OCC(=O)Nc2ccc(S(=O)(=O)Nc3onc(C)c3C)cc2)c1C	-0.158%
COc1ccccc1-c1nc2c(c(SCc3cc(C)ccc3C)n1)Cc1c(CO)cnc(C)c1O2	-1.07%
CCCNC(=O)Cn1nc(-c2ccc(C)c(C)c2)c2cnc3ccc(OC)cc3c21	5.66%
COc1ccccc1NC(=O)Cn1cnc2ccc(S(=O)(=O)N3CCC(C)CC3)cc2c1=O	13.1%
CCc1ccc(NC(=O)Cn2c(=O)n(CCCC(=O)NCc3ccccc3Cl)c(=O)c3ccccc32)cc1	8.91%
Cc1cc(NC(=O)CSc2nc(-c3cccc(F)c3)nc3c2c(=O)n(C)c(=O)n3C)no1	1.26%

Compound	inhibition
Cc1ccc(-c2nc3cc(NC(=O)Cc4ccc(Cl)cc4)ccc3o2)cc1	7.78%
C=CCn1c(=O)[nH]c2cc(C(=O)N3CC=C(c4ccccc4)CC3)ccc2c1=O	active: 36%
CCOC(=O)C1CCN(CC(O)COc2ccc(C(=O)CC)cc2)CC1 (centres undefined)	active: 55.6%
CCOC(=O)c1ccc(N2CC3=C(C2=O)C(c2ccc(OC)cc2)NC(=O)N3C)cc1 (centres undefined)	6.28%
Cc1ccc(CN2C3CCCC2CC(NC(=O)c2ccc(C)cc2)C3)cc1 (centres undefined)	active: 74.5%
COc1cc(NS(=O)(=O)c2ccc3c(c2)CC(C)N3C(=O)C2CCC2)cc(OC)c1OC (centres undefined)	-0.928%
CCc1ccc(NC(=O)CN2C(=O)C3CCCN3c3ccc(S(=O)(=O)N(CC)CC)cc32)cc1 (centres undefined)	4.48%
COc1ccc(CCNc2ncnc3onc(-c4ccc(Cl)cc4)c23)c(OC)c1	-3.41%
Cn1cc(S(=O)(=O)N2CCCCCC2)cc1C(=O)N1CCN(c2ccccc2F)CC1	-24.1%
O=C(NC1CCCCC1)c1ccc(-c2ccccc2[N+](=O)[O-])o1	active: 59.5%
Cc1ccc(N(CC(O)Cn2c3ccccc3c3ccccc32)S(=O)(=O)c2ccc(F)cc2)cc1 (centres undefined)	3.78%
Cc1ccccc1Nc1sc(C(=O)c2ccccc2)c(N)c1S(C)(=O)=O	4.74%
Cc1c(CC(=O)N2CCCCC2)c(=O)oc2cc(O)ccc12	15.7%
COc1ccccc1NC(=O)c1oc2ccccc2c1NC(=O)Cc1cccs1	-10.5%
CC(=O)N1CCc2c(sc3c2c(=O)n(CCc2ccccc2)c(=O)n3CC(=O)Nc2ccccc2F)C1	1.92%
COc1cccc(NC(=O)Cn2c(=O)n(-c3ccccc3)c(=O)c3ccc(C(=O)NCc4ccc5c(c4)OCO5)cc32)c1	-2.19%
COc1ccc(-n2c(SCC(=O)c3ccc(Cl)cc3)nc3c([nH]c4ccccc43)c2=O)cc1	5.23%
COc1ccccc1N1CCN(c2ccc(=O)n(CC(=O)Nc3cc(F)ccc3C)n2)CC1	3.47%
COc1cc2c(cc1OC)C(c1ccc(Cl)cc1)N(c1cccc(C#N)c1)C(=O)C2 (centres undefined)	-0.921%
Nc1c(C(=O)Nc2ccc(C(F)(F)F)cc2)sc2nc(-c3cccs3)ccc12	0.362%
COc1ccccc1-c1nnc(C2CCN(S(=O)(=O)c3ccc(CC(C)C)cc3)CC2)o1	-26%
COc1ccc(NC(=O)c2cn(-c3ccccc3)nc2-c2ccncc2)cc1	active: 68.4%
COc1cccc(-c2nc(SCc3cccc(Br)c3)n3[nH]c(=O)cc3n2)c1	2.76%
COc1ccc(CNC(=O)Nc2ccc3c(c2)N(C)C(=O)c2ccccc2S3)cc1OC	16%

Compound	inhibition
COc1cc(OC)c(NC(=O)CN2CCCN(Cc3ccccc3C)S2(=O)=O)cc1Cl	10.3%
Cc1cc(N2CCN(C)CC2)nc2ccc(NC(=S)NCCCN3CCc4ccccc4C3)cc12	active: 34.1%
Cc1cccc(NC(=O)COc2ccc(-c3nn(C)c(=O)c4ccccc34)cc2)c1	7.69%
CCOc1ccc(CCNC(=O)CCCc2nnc3n(CC)c(=O)c4sccc4n23)cc1OCC	0.0938%
Cc1ccc(NC(=O)Cn2c(=O)n(Cc3nc(-c4ccccc4)no3)c(=O)c3ccccc32)cc1C	-2.94%
CCOc1ccc(NC(=O)CSc2nnc(-c3ccc(OCC)cc3)o2)cc1	-3.38%
COc1ccc(CNCCNC(=O)c2cccs2)cc1OC	active: 39.5%
Cc1ccc(CNC(=O)c2c(-c3ccccc3Cl)noc2C)o1	5.99%
Cc1coc2cc3oc(=O)c(CC(=O)NCc4cccc(Cl)c4)c(C)c3cc12	7.98%
O=C(NCCc1ccccc1)c1nn(-c2ccc(F)cc2)nc1CO	6.08%
Cc1cccc(CNC(=O)c2ccc3nc(Cc4ccccc4)oc3c2)c1	27.3%
CCOc1ccc(C2c3[nH]c4ccccc4c3CCN2C(=O)CSCc2ccc(F)cc2)cc1 (centres undefined)	11.1%
COc1ccc(NC(=O)CSc2nnc(NC(=O)NC3CCCCC3)s2)cc1OC	1.54%
Cc1cccc(NC(=O)CS(=O)(=O)c2cccc3nsnc23)c1	-25.8%
Cc1ccc(CCNC(=O)c2c3c(nc4ccccc24)C(=O)N(C2CCCCC2)C3)cc1	13.8%
CC(=O)c1ccc(NS(=O)(=O)c2ccc3[nH]c4c(c3c2)CCCC4)cc1	-5.48%
O=S1(=O)CCOC[C@H](c2ccccc2)N1Cc1ccccc1	active: 30.2%
Cc1ccc(CNC(=O)c2c[nH]n3c(=O)c(Cc4ccc(Cl)cc4)c(C)nc23)cc1	-3.1%
O=C(NCCN1CCc2ccccc2C1)C1CC(=O)N(C2CCCC2)C1 (centres undefined)	active: 32.6%
CCc1ccc(S(=O)(=O)c2cn(Cc3ccccc3F)c3cc(OC)c(OC)cc3c2=O)cc1	1.55%
COc1ccc(N2CCN(Cc3nc4c(c(=O)[nH]c(=O)n4C)n3CC(C)C)CC2)cc1	6.53%
O=C(NCc1cccc(Br)c1)c1ccc(NC(=O)N2CCCCc3ccccc32)cc1	15.5%
